From patent publication US20040120947A1 (Genentech, published 2004)

Molecular target: T1, soluble His-tagged Apo-2L (UniProt P50591 114-281, limits assumed)
T1 construct: His tag present; also called Apo-2 ligand; TRAIL
Test: KinExA; column head 'Affinity (pM)'

T1 sequence (P50591 114-281 limits assumed): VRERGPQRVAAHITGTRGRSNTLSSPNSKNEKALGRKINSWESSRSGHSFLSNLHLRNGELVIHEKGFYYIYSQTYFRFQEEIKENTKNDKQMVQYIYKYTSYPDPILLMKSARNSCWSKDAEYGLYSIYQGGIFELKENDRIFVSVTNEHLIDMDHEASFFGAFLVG

B1: DR4 ECD immunoadhesin (Fc fusion)
chain: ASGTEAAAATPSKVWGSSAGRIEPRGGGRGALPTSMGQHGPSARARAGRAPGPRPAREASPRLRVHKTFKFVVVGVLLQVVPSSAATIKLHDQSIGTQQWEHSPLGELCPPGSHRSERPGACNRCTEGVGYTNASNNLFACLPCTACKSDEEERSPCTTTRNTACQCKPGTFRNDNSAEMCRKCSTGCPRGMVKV
notes: Expressed in human 293 cells; also called DR4-IgG; DR4 ECD-IgG; not shown: CH1, hinge and Fc region of human immunoglobulin G1 heavy chain
  Kd: 0.082 nM
